{"source": "paper PMC7819943", "about": "“Rice protein-binding microarrays: a tool to detect cis-acting elements near promoter regions in rice”", "note": "The list shows a part of the results."}
{"target": "T1, OsWOX13 (Oryza sativa, UniProt Q5QMM3 1-267)", "T1 sequence": "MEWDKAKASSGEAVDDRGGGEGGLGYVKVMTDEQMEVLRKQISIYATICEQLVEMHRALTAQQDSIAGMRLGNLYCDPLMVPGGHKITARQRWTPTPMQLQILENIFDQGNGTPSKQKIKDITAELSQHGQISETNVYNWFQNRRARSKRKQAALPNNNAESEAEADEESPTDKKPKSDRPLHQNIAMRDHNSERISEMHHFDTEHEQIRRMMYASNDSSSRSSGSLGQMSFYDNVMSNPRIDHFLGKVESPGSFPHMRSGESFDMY", "test": "protein-binding microarray (RPBM); PBS, 2% BSA, 51.3 ng/ul salmon testes DNA, 50 uM zinc acetate, 200 nM TF, 25 C, 1 h; high values mean tight binding", "details": "protein: recombinant; tags: N-terminal polyhistidine and DsRed monomer fusion (pET32a); label: CyDye5-dUTP incorporated in the synthesized complementary strand; 3' TTTTT single-stranded linker to array surface; dsDNA, one strand shown", "summary_of_the_method": "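Transcription factors were each fused at the N-terminus to a polyhistidine tag plus DsRed and expressed in E. coli BL21-CodonPlus before Ni–NTA purification. Binding to a double-stranded custom Agilent array was carried out with 200 nM protein at 25 °C for 1 h in PBS, 2% BSA, salmon testes DNA and 50 µM zinc acetate. The binding signal is per-feature fluorescence intensity, in arbitrary units, on an Axon 4000B scanner.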"}
{"sequence": "GCATATAATTTAAGTAATCATTTCTCCTAGATTTGCATTGCGGAGTCACCTAGTGCAG", "binding signal": "25400 fluorescence intensity (a.u.)"}
{"sequence": "GTTCATTGATGAGTGTGTAACTATACTAGGTTGCTTGCTTCGGAGTCACCTAGTGCAG", "binding signal": "4230 fluorescence intensity (a.u.)"}
{"sequence": "TGTAATACATTAATTTATACCAGGTTTAAAATCAAAACTCCGGAGTCACCTAGTGCAG", "binding signal": "8440 fluorescence intensity (a.u.)"}
{"sequence": "CTAATTGATGCATGCTAGTTTGTTGGAGAAAGAACAGACACGGAGTCACCTAGTGCAG", "binding signal": "32900 fluorescence intensity (a.u.)"}
{"sequence": "CAAAATGTAAATTATATATCACAATCATATTTCTCATGTTCGGAGTCACCTAGTGCAG", "binding signal": "15400 fluorescence intensity (a.u.)"}
{"sequence": "ATTTGATTTGTACGGTCGATTTAGTTAATTTGGATGTAGACGGAGTCACCTAGTGCAG", "binding signal": "42100 fluorescence intensity (a.u.)"}
{"sequence": "GGAATTAGACGACCTTTTCTACATGCATATAGTACTTGACCGGAGTCACCTAGTGCAG", "binding signal": "4400 fluorescence intensity (a.u.)"}
{"sequence": "TTTGATGACAATGTGATGAGATGTCTCCAAAGGAAGCCTACGGAGTCACCTAGTGCAG", "binding signal": "24400 fluorescence intensity (a.u.)"}
{"sequence": "TTTATCGTCAATCAAATTGTTGTCTTGGCCTTCGTTCGGACGGAGTCACCTAGTGCAG", "binding signal": "23500 fluorescence intensity (a.u.)"}
{"sequence": "AGTTAATTAATCAGGTGCTTGCCAGCCATGAATGGACCATCGGAGTCACCTAGTGCAG", "binding signal": "36500 fluorescence intensity (a.u.)"}
{"sequence": "CCCACCTATATATAATTGCCTCATCTCCTCTTCTTCCCTCCGGAGTCACCTAGTGCAG", "binding signal": "3710 fluorescence intensity (a.u.)"}
{"sequence": "ATATGATAGAATGGAACTACTAAAAGTAAGAGGAGGGTCACGGAGTCACCTAGTGCAG", "binding signal": "13200 fluorescence intensity (a.u.)"}
{"sequence": "ATCTATCCTCTCCAATCATAAATCCTTGATGTTTTGAATTCGGAGTCACCTAGTGCAG", "binding signal": "7610 fluorescence intensity (a.u.)"}
{"sequence": "TCCTTAAATTTGTAGGGTTGTGTCATATAGGTCCCTAAACCGGAGTCACCTAGTGCAG", "binding signal": "5800 fluorescence intensity (a.u.)"}
{"sequence": "GTAGCCTTTAATTAAGAGTGATATTTTATTGAATCCTCCTCGGAGTCACCTAGTGCAG", "binding signal": "5280 fluorescence intensity (a.u.)"}
{"sequence": "CAGATTTGATGAAGATGGTGGCCACTGCTTCCTCAATGCACGGAGTCACCTAGTGCAG", "binding signal": "8250 fluorescence intensity (a.u.)"}
{"sequence": "AAATCATTAATAGTGCGTGATTAATTGAGTATTAATTATTCGGAGTCACCTAGTGCAG", "binding signal": "8480 fluorescence intensity (a.u.)"}
{"sequence": "CAATGATGTTGATGTATTATTATTAAACAATGATATTGATCGGAGTCACCTAGTGCAG", "binding signal": "4250 fluorescence intensity (a.u.)"}
{"sequence": "AAATGATTTGATCTAAATTGATAAGTTACTGAGGAGTGCGCGGAGTCACCTAGTGCAG", "binding signal": "64800 fluorescence intensity (a.u.)"}
{"sequence": "GTCTAATTGTGATTTTATATTTTAATTAATTATATATTGTCGGAGTCACCTAGTGCAG", "binding signal": "34800 fluorescence intensity (a.u.)"}
{"sequence": "CATGAATTGGAAGATTTGATGCACTGATACTCCATGAAGACGGAGTCACCTAGTGCAG", "binding signal": "8060 fluorescence intensity (a.u.)"}
{"sequence": "ATAGATAGATAGATCGCTCCGCACATACTATGGTGCTCACCGGAGTCACCTAGTGCAG", "binding signal": "12500 fluorescence intensity (a.u.)"}
{"sequence": "ACGATAATTAGTAGTAGTACCCAACTCGAGGAGGTGGAGACGGAGTCACCTAGTGCAG", "binding signal": "20800 fluorescence intensity (a.u.)"}
{"sequence": "ACAAAGTAATTAAACAAAAGTAGTATATATATACCTTTATCGGAGTCACCTAGTGCAG", "binding signal": "5480 fluorescence intensity (a.u.)"}
{"sequence": "AGAAAACTAATTATAGAGTATATATAAAGCTGTACACGAGCGGAGTCACCTAGTGCAG", "binding signal": "5750 fluorescence intensity (a.u.)"}
{"sequence": "AATGAAAACTAATTAAGGCTTAAAATCCAAATTTGAGGGCCGGAGTCACCTAGTGCAG", "binding signal": "7030 fluorescence intensity (a.u.)"}
{"sequence": "GATGTGGGATGGATTTGTGGTGATTGAGAGGGTTTGAAAGCGGAGTCACCTAGTGCAG", "binding signal": "17800 fluorescence intensity (a.u.)"}
{"sequence": "TAAACTAAAATAATTTTCATTGGCAACGTACGTCAACGGTCGGAGTCACCTAGTGCAG", "binding signal": "4810 fluorescence intensity (a.u.)"}
{"sequence": "GAGGCCAGATAGTTGATTGAATGAAGAGCTCTTGCAAAGCCGGAGTCACCTAGTGCAG", "binding signal": "18500 fluorescence intensity (a.u.)"}
{"sequence": "ATCACCCTGATTATCGTTTCTAAGCCATATTTAGCAAACTCGGAGTCACCTAGTGCAG", "binding signal": "7470 fluorescence intensity (a.u.)"}
{"sequence": "AAGAAATTGATAAATTAAATCGAATCCAACTTAGCACTATCGGAGTCACCTAGTGCAG", "binding signal": "42000 fluorescence intensity (a.u.)"}
{"sequence": "ATGGCAAAGATGATTGAAGTACTCGGTTTTGGAGTAATCTCGGAGTCACCTAGTGCAG", "binding signal": "27300 fluorescence intensity (a.u.)"}
{"sequence": "TAGATCCGTCATCTTGTTAATTAGTACTGTAGCTATCCGTCGGAGTCACCTAGTGCAG", "binding signal": "8160 fluorescence intensity (a.u.)"}
{"sequence": "CTGTTGATGAAGAAATAAAATCGATCCTTATTTGTGCTGTCGGAGTCACCTAGTGCAG", "binding signal": "5770 fluorescence intensity (a.u.)"}
{"sequence": "TGTAATTACGAGAACGAGCCTACCTACCAGTGCCACCATACGGAGTCACCTAGTGCAG", "binding signal": "7280 fluorescence intensity (a.u.)"}
{"sequence": "CCACCTACCTCTAATTATCCTCCAATCACAACACTCCACTCGGAGTCACCTAGTGCAG", "binding signal": "11000 fluorescence intensity (a.u.)"}
{"sequence": "GTACCATTAATGCAATTTATTCATCATGTATAATACTATTCGGAGTCACCTAGTGCAG", "binding signal": "4300 fluorescence intensity (a.u.)"}
{"sequence": "GCCCTCTAATCATTGTAGCCTTGTGCCTTTCGGCTCCCCGCGGAGTCACCTAGTGCAG", "binding signal": "5250 fluorescence intensity (a.u.)"}
{"sequence": "CAATAATTATGTTCGATTTGTAAAATTCTAATGACAATAACGGAGTCACCTAGTGCAG", "binding signal": "18200 fluorescence intensity (a.u.)"}
{"sequence": "CACAGTTTGCAATTTGACTGTCAAGGCTTTCAGCTCAGACCGGAGTCACCTAGTGCAG", "binding signal": "3160 fluorescence intensity (a.u.)"}
{"sequence": "AATAAATGGTTAGGATTTAAAGATGTCTTTTGGTGGGTGGCGGAGTCACCTAGTGCAG", "binding signal": "4730 fluorescence intensity (a.u.)"}
{"sequence": "AGAAATTTAAAGAATAAATTTGAAACTAAACACGGCGCCACGGAGTCACCTAGTGCAG", "binding signal": "15300 fluorescence intensity (a.u.)"}
